Assay results: PubChem BioAssay AID588342 (National Center for Advancing Translational Sciences (NCATS), 2011)
About 25,000 (6.9%) of roughly 360,000 compounds were called active. The inconclusive results got no clear call from the source; some entries with a clear call stand among them for comparison. The call rests on the fitted dose curve; in most records, active means well fitted inhibition curve with a large enough effect; inconclusive means small, poorly fitted or top-dose-only effect; inactive means flat fitted curve, though single readings scatter. Potencies of inconclusive entries are doubtful fits and often do not repeat.

target: Luciferin 4-monooxygenase (Photinus pyralis) (UniProt P08659); assay: qHTS profiling assay for firefly luciferase inhibitor/activator using purifed enzyme and Km concentrations of substrates (counterscreen for miR-21 project); conditions: purified FLuc, luminescence inhibition; series mostly up to 57.5 µM; activity change, negative = inhibition: at the top concentration; further: nearly all actives have a fitted effect of over 55% in size;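 on activity change, negative = inhibition: plate controls were vehicle for no effect and reference inhibitor for full effect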
How it was run: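 Purified P. pyralis luciferase (10nM final) with 10uM D-luciferin and 10uM ATP (Km levels) in 50mM Tris acetate pH 7.5, 10mM Mg acetate, 0.01% Tween-20, 0.05% BSA; qHTS 6-point titration, ~60 µM downward; luminescence read.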
Potency means the concentration at half of the fitted maximal effect; tags describe the fitted curve by direction and shape.

Chain of UniProt P08659 (P08659 whole entry, looked up): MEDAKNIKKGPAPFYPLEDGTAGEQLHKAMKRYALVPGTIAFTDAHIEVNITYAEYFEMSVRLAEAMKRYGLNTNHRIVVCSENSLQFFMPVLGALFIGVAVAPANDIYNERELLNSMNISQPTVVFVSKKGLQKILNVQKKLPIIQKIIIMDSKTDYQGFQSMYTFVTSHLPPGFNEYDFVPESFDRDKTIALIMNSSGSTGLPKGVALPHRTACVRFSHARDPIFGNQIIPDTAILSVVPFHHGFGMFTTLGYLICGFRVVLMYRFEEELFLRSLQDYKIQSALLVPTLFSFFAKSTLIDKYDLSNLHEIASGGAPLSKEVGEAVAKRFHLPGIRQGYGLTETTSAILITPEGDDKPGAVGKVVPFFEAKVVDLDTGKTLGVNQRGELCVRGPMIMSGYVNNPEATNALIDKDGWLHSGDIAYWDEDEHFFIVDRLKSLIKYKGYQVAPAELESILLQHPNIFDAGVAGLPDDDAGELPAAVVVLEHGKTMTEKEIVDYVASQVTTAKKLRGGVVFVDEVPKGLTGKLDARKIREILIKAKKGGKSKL

SMILES | activity change, negative = inhibition | Potency
CC(C)n1nc(C(=O)OCn2nnc3ccccc3c2=O)c2ccccc2c1=O | inactive: 0.603% | –
CN(C)c1cccc(C(=O)NCC2CCCO2)c1 (stereo not given) | inactive: -3.73% | –
COc1ccc(Br)cc1C(=O)Nc1ccc2oc(-c3cccnc3)nc2c1 | inactive: -1.38% | –
O=C1CSC2=NCN(c3ccc4c(c3)OCO4)CN12 | – | inconclusive: 37.9 µM [inhibitor, partial curve, poor fit]
O=C(CN1C(=O)S/C(=C\c2ccc(Cl)cc2)C1=O)NC1C=CS(=O)(=O)C1 (stereo not given) | inactive: 1.92% | –
CC(C)c1ccc(O)c(NC(=S)NC(=O)c2cccnc2)c1 | – | inconclusive: 13.5 µM [inhibitor, partial curve]
CCOC(=O)c1c(S(=O)(=O)N2CCCC(C(=O)Nc3ccc(OCC)cc3)C2)c(C)n(C)c1C (stereo not given) | inactive: -3.32% | –
O=C(O)c1ccc(-n2c(-c3cc(C4CC4)[nH]n3)n[nH]c2=S)cc1 | inactive: -12.8% | –
c1ccc2[nH]c(-c3cscn3)nc2c1 | – | active: 13.5 µM
COc1ccc(S(=O)(=O)N2CCCC(C(=O)N3CCOCC3)C2)cc1OC (stereo not given) | inactive: 0.0606% | –
CCCOc1ccccc1-c1nc(SCC(=O)c2ccccc2)n[nH]1 | inactive: -15.9% | –
Cc1ccc(-c2cc(NC(=O)c3ccccc3Cl)on2)cc1 | – | inconclusive: 2.39 µM [inhibitor, full curve]
O=C(COC(=O)c1ccc(Cl)nc1)NC(=O)c1ccc(OC(F)F)cc1 | inactive: 3.51% | –
COc1ccc(CCC(=O)Nc2cc3c4c(c2)CC(=O)N4CCC3)cc1 | inactive: 6.48% | –
N#Cc1cc([N+](=O)[O-])ccc1Oc1cccc(/C=N/NC(=O)c2ccc(Cl)cc2)c1 | – | inconclusive: 9.53 µM [inhibitor, partial curve]
CCOC(=O)c1sc(NC(=O)C2CCC2)cc1C | – | active: 12 µM
CCCNC(=O)CSCc1nc(-c2ccc(SC)cc2)oc1C | – | inconclusive: 37.9 µM [inhibitor, single point]
O=C(COc1ccccc1Cl)N1CCc2ccccc21 | – | active: 6.75 µM
CSc1nc(C)cc(Oc2ccc(=O)[nH]n2)n1 | inactive: -2.75% | –
Cc1ccc(-n2ncc3c(N4CCN(c5ccccc5)CC4)ncnc32)cc1C | inactive: 0.962% | –
O=C(Nc1ccc(OCC(=O)N2CCC(Cc3ccccc3)CC2)cc1)c1ccco1 | – | active: 26.9 µM
Cc1ccccc1OCC(=O)Nc1ccc(C(=O)Nc2ccccc2C(=O)O)cc1 | inactive: 5.92% | –
O=C(Cc1ccc(Br)cc1)N/N=C/c1ccc(-c2cccc(C(=O)O)c2)o1 | – | inconclusive: 33.8 µM [inhibitor, single point]
CCn1ccc(C(=O)NC2=NCCS2)n1 | inactive: -15.6% | –
Cc1nn(-c2ccc(N3CCCCC3)nn2)c(C)c1CCC(=O)NCc1ccc(F)cc1 | – | inconclusive: 37.9 µM [inhibitor, partial curve, poor fit]

SMILES | activity change, negative = inhibition | Potency
COc1cc(-c2nnc(SCc3cc(=O)oc4cc(C)ccc34)o2)cc(OC)c1OC | – | inconclusive: 8.49 µM [inhibitor, partial curve, poor fit]
CC(Cl)c1cc(-c2ncc(C(F)(F)F)cc2Cl)no1 (stereo not given) | – | inconclusive: 37.9 µM [inhibitor, partial curve, poor fit]
CCc1ccccc1NC(=O)CN1C(=O)CCn2nc(-c3cccn3C)cc21 | inactive: 4.5% | –
O=C(/C=C/c1cccc(Cl)c1)N1CCC(Cc2ccccc2)CC1 | – | inconclusive: 37.9 µM [inhibitor, single point]
CC(C)(C)c1ccc(/C=C/C(=O)Nc2ccncc2)cc1 | – | active: 4.78 µM
C/C(=N\NC(=O)c1ccccc1F)c1ccc(C#N)cc1 | – | inconclusive: 23.9 µM [inhibitor, partial curve]
CCc1ccc(/C=N/NC(=O)C(=O)NCCCN2CCOCC2)cc1 | – | inconclusive: 37.9 µM [inhibitor, partial curve, poor fit]
COc1ccc(C2=C/C(=C\c3ccc(OC(C)=O)cc3)C(=O)O2)cc1 | inactive: -8.54% | –
COc1ccc(NC(=O)NNC(=O)c2ccc3ccccc3c2O)c(OC)c1 | inactive: -2.12% | –
FC(F)(F)c1ccccc1-n1c(-c2cnccn2)n[nH]c1=S | – | active: 16.9 µM
COc1ccc2oc(=O)c(C(=O)NCC3CCCO3)cc2c1 (stereo not given) | – | inconclusive: 37.9 µM [inhibitor, partial curve, poor fit]
CCCCc1c(C)c2ccc(OCC(C)=O)cc2oc1=O | – | active: 19 µM
COc1cccc2cc(C(=O)NC3CC4CCC3C4)oc12 (stereo not given) | – | inconclusive: 26.9 µM [inhibitor, single point]
O=C(CSc1nc(-c2cccs2)nc2cc(=O)[nH]n12)Nc1ccccc1 | – | inconclusive: 23.9 µM [inhibitor, partial curve, poor fit]
COc1cccc(NC(=S)NCc2ccco2)c1 | – | inconclusive: 37.9 µM [inhibitor, partial curve, poor fit]
O=C(O)c1ccc(S(=O)(=O)Nc2ccc(O)c(Sc3nc4ccccc4s3)c2)cc1 | – | inconclusive: 21.3 µM [inhibitor, single point]
Cc1ccc(NC(=O)c2cc(-c3ccc(C)o3)nc3ccccc23)nc1 | – | inconclusive: 2.39 µM [inhibitor, full curve]
CN(c1nc2nonc2nc1NC1CC1)C1CCOC1 (stereo not given) | inactive: -19.8% | –
CCOC(=O)c1sc(Nc2cccc(C)c2C)nc1C | – | inconclusive: 37.9 µM [inhibitor, single point]
COc1cc(C(=O)NC23CC4CC(CC(C4)C2)C3)cc(OC)c1OC | inactive: -1.36% | –
CO/N=C/c1ccc(Oc2ccc(C)cc2)c([N+](=O)[O-])c1 | – | inconclusive: 21.3 µM [inhibitor, single point]
COc1ccccc1-c1noc(-c2ccc(N3CCOCC3)c([N+](=O)[O-])c2)n1 | – | inconclusive: 26.9 µM [inhibitor, partial curve, poor fit]
COc1cc2nc(CCc3ccccc3)oc(=O)c2cc1OC | – | inconclusive: 9.53 µM [inhibitor, partial curve]
COc1ccc(/C=C/c2nnc(NC(=O)CSc3ccc(Cl)cc3)s2)cc1 | inactive: -0.114% | –
CC(C)Cn1c(=O)c2ccccc2n2c(CCC(=O)N3CCN(c4cccc(Cl)c4)CC3)nnc12 | inactive: 4.18% | –
